In PMC6956557, “Preclinical development of a novel CD47 nanobody with less toxicity and enhanced anti-cancer therapeutic potential” (Journal of Nanobiotechnology, 2020):

Biological target: T1, HuNb1-IgG4
T1 construct: humanized VHH of the camel anti-CD47 nanobody Nb1; VHH subcloned into the vector pFUSE-hIgG4-Fc2; also called humanized Nb1-IgG4; CD47 Nb
Experiment: BLI; Octet Red 96; Nb-IgG4 (5 μg/mL) coupled to protein A sensors, series diluted hCD47 (ECD)-Fc in solution, dissociation in PBST; 1:1 global fit
Settings: both partners purified

T1 sequence (heavy, as listed by the source): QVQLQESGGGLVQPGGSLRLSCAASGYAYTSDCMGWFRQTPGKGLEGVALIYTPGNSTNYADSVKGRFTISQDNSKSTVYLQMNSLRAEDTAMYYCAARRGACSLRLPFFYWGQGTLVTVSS

B1: hCD47 (ECD)-Fc (Fc fusion)
chain: not shown
notes: human CD47 ectodomain (ECD), […]; Cloned into a pFUSE vector; also called human CD47 (ECD)-Fc; recombinant hCD47 antigen
Kd: 4.85 nM
